# In all, about 18,000 sequences were measured (“TetR repression strength (sort-seq, GFP reporter)”: median about 0.23, highest 2% from about 0.68 on). The list shows a part of the results.
# Molecular target: TetR (class B, Tn10) (UniProt P04483)
# Experiment: TetR repression strength (sort-seq, GFP reporter) (relative to tetO2 = 1); higher = stronger repression
# Conditions: E. coli
# In short: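 In LB with 50 µg/mL chloramphenicol, E. coli SIG10-MAX holding a low-copy library with eight randomized operator positions between a constitutive promoter and sfGFP, plus constitutive TetR, grew for 5 h at 37 °C. FACS then sorted 10^6 cells into 13 fluorescence bins for Illumina sequencing of each bin. Repression strength equals the top bin index plus one less the read-weighted mean bin, normalized to the unaltered operator. Values from three independent transformations were averaged when reads were ≥30 in every replicate and the CV was ≤0.5.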
# UniProt P04483, sequence (P04483 whole entry): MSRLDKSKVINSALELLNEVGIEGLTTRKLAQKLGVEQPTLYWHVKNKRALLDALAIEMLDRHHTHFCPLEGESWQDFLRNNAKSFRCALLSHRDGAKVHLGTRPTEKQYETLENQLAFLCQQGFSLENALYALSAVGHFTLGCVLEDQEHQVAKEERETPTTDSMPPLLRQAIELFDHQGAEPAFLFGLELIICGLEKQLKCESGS
row,Sequence,TetR repression strength
1,TCCCAAATAGTTAAGGAGA,0.286
2,TCCCAGCGAGTATGGGAGA,0.147
3,TCCCCGAGAGTCAGGGAGA,0.45
4,TCCCTGCTAGTTTGAGAGA,0.128
5,TCCCGACGAGTTCTCGAGA,0.32
6,TCCCCCGCAGTTTTGGAGA,0.104
7,TCCCGCTGAGTGGAGGAGA,0.165
8,TCCCTGGAAGTGACTGAGA,0.109
9,TCCCCAGGAGTCTGGGAGA,0.305
10,TCCCGATAAGTGGGTGAGA,0.276
11,TCCCGACTAGTAACTGAGA,0.613
12,TCCCGAGGAGTCGCCGAGA,0.0695
13,TCCCCGCCAGTTTTGGAGA,0.0554
14,TCCCCTAGAGTATCTGAGA,0.483
15,TCCCACATAGTGACGGAGA,0.242
16,TCCCAGCCAGTTGTCGAGA,0.231
17,TCCCTCGTAGTATGCGAGA,0.17
18,TCCCGTGCAGTATGGGAGA,0.227
19,TCCCAACGAGTCGTTGAGA,0.269
20,TCCCAATAAGTGATCGAGA,0.42
21,TCCCTATCAGTGGTAGAGA,1.01
22,TCCCGGAGAGTCGAGGAGA,0.267
23,TCCCTTAGAGTGCGGGAGA,0.0573
24,TCCCTCCGAGTTCTGGAGA,0.295
25,TCCCTGCCAGTCTCAGAGA,0.0342
26,TCCCGCTTAGTCGACGAGA,0.131

row,Sequence,TetR repression strength
1,TCCCGCGGAGTGGCAGAGA,0.134
2,TCCCATACAGTTAGTGAGA,0.173
3,TCCCACTAAGTTGCGGAGA,0.0587
4,TCCCCAGTAGTGATCGAGA,0.207
5,TCCCAGGGAGTGACCGAGA,0.104
6,TCCCGGGCAGTGCAGGAGA,0.54
7,TCCCACACAGTGTGTGAGA,0.11
8,TCCCTCTGAGTCATCGAGA,0.295
9,TCCCAATCAGTCGAGGAGA,0.202
10,TCCCACCGAGTTGATGAGA,0.352
11,TCCCGCATAGTCCAGGAGA,0.389
12,TCCCTGTGAGTGATGGAGA,0.302
13,TCCCAGCCAGTACTCGAGA,0.543
14,TCCCTCATAGTGTTAGAGA,0.306
15,TCCCTGCGAGTGACGGAGA,0.104
16,TCCCCCCTAGTCGATGAGA,0.564
17,TCCCCGTGAGTTCGAGAGA,0.158
18,TCCCTCAGAGTATCGGAGA,0.279
19,TCCCATGAAGTAGACGAGA,0.259
20,TCCCGTTAAGTGCCAGAGA,0.207
21,TCCCCAACAGTGTAGGAGA,0.174
22,TCCCAGTGAGTACCTGAGA,0.33
23,TCCCTTTCAGTCCCAGAGA,0.0305
24,TCCCTGACAGTAAATGAGA,0.317
25,TCCCGTAGAGTGCAGGAGA,0.362
26,TCCCCCAAAGTTGTGGAGA,0.319

row,Sequence,TetR repression strength
1,TCCCAAAGAGTATAGGAGA,0.304
2,TCCCAAGAAGTGACCGAGA,0.221
3,TCCCTGGTAGTCTGGGAGA,0.242
4,TCCCGTCCAGTTGTCGAGA,0.283
5,TCCCGGCGAGTTGTCGAGA,0.243
6,TCCCGCTAAGTCAATGAGA,0.566
7,TCCCAATGAGTTTACGAGA,0.325
8,TCCCCACCAGTTGGGGAGA,0.151
9,TCCCTTAGAGTGGGGGAGA,0.0915
10,TCCCTGTCAGTGATTGAGA,0.592
11,TCCCCGAGAGTTGGGGAGA,0.104
12,TCCCCGTCAGTCGAAGAGA,0.207
13,TCCCTGCTAGTTTCCGAGA,0.417
14,TCCCCAGGAGTGCGGGAGA,0.108
15,TCCCCAACAGTAGAGGAGA,0.56
16,TCCCGGTCAGTTTTAGAGA,0.594
17,TCCCATGTAGTCAGCGAGA,0.32
18,TCCCGGCTAGTGAGTGAGA,0.405
19,TCCCTGTGAGTTGACGAGA,0.174
20,TCCCTCGGAGTCGGGGAGA,0.195
21,TCCCCCAAAGTTGCAGAGA,0.635
22,TCCCTGAAAGTGGCCGAGA,0.566
23,TCCCTCTAAGTGTTCGAGA,0.333
24,TCCCCGGTAGTTGGTGAGA,0.23
25,TCCCGGCGAGTCGCGGAGA,0.254
26,TCCCTGCGAGTTAAGGAGA,0.225

row,Sequence,TetR repression strength
1,TCCCGTAAAGTCATGGAGA,0.273
2,TCCCGGGGAGTTCATGAGA,0.161
3,TCCCGTTCAGTGGGTGAGA,0.33
4,TCCCTCGAAGTTGCCGAGA,0.0346
5,TCCCAGAGAGTAAATGAGA,0.0415
6,TCCCAGTAAGTCCTTGAGA,0.49
7,TCCCTAGTAGTGTTTGAGA,0.311
8,TCCCTGTCAGTATGAGAGA,0.303
9,TCCCCACGAGTTCAAGAGA,0.381
10,TCCCAGCGAGTTTGTGAGA,0.241
11,TCCCTGGCAGTAGTAGAGA,0.0854
12,TCCCGTACAGTGCGCGAGA,0.318
13,TCCCATGCAGTTGGGGAGA,0.216
14,TCCCCCCCAGTTAAAGAGA,0.311
15,TCCCCCGAAGTTTCAGAGA,0.32
16,TCCCACTCAGTTATAGAGA,0.661
17,TCCCTTGCAGTATACGAGA,0.35
18,TCCCAATAAGTGGTAGAGA,0.399
19,TCCCTGTGAGTGTTTGAGA,0.256
20,TCCCTATTAGTAGGAGAGA,0.26
21,TCCCAGGTAGTGACCGAGA,0.142
22,TCCCGCGTAGTGTTGGAGA,0.324
23,TCCCATCGAGTTGAGGAGA,0.259
24,TCCCGGGGAGTCAGAGAGA,0.17
